PubChem BioAssay (Tox21)
Inconclusive means that the source gave no clear call. Such entries were picked first, then a sample of the others. Potencies of inconclusive entries are left out as doubtful fits. Calls of active or inactive are those of the source. Unless noted, the call rests on the fitted dose curve; in most records, active means well fitted curve in the direction sought with a large enough effect in the repeat runs; inconclusive means weak or mixed curves; inactive means no such curve, though single readings can be large; an effect the other way counts as inactive or inconclusive.

What was measured:
[1] = target: Progesterone receptor (Homo sapiens) (UniProt P06401); assay: qHTS assay to identify small molecule antagonists of the progesterone receptor (PR) signaling pathway (AID 1346795; active means well fitted inhibition curve with a large enough effect in the signal ratio in the repeat runs, not every such curve was filed as active; inconclusive means weak or mixed curves; the % refers to the signal ratio; on activity change, negative = inhibition: on the % scale 0 is the no-effect control and ±100 the full control effect); details: PR-UAS-bla HEK293T, beta-lactamase FRET ratio, 16 h; activity change, negative = inhibition: at 92.4 µM (top of the series) unless noted
Procedure, shortened: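 HEK293T PR-UAS-bla reporter cells in charcoal-stripped serum (2%) received compound after a 6 hr settling period, followed by R5020 agonist at 1 nM final; 16 hr incubation preceded the FRET substrate step and fluorescence measurement.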

[2] = target: Nuclear receptor subfamily 1 group I member 2 (Homo sapiens) (UniProt O75469); assay: Human pregnane X receptor (PXR) small molecule agonists, qHTS assay (AID 1346982); details: PXR-Luc HepG2, CYP3A4 luciferase reporter, 24 h; series mostly up to 92.4 µM; further: nearly all actives have a fitted effect of over 35% in size
Procedure, shortened: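 Cells: HepG2 stably carrying PXR-Luc. Medium held 5% charcoal-stripped FBS. Compounds in DMSO added after 5 hr plating, incubated 24 hr, then luminescence quantified with ONE-Glo.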

[3] = target: Cytochrome P450 2D6 (Homo sapiens) (UniProt P10635); assay: Cytochrome P450 Family 2 Subfamily D Member 6 (CYP2D6) small molecule antagonists: luciferase reporter qHTS assay (AID 1671196); details: P450-Glo CYP2D6 enzyme assay, luciferin luminescence, 1 h; series mostly up to 115 µM; further: nearly all actives have a fitted effect of over 50% in size; on activity change, negative = inhibition: on the % scale 0 is the no-effect control and ±100 the full control effect
Procedure, shortened: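 Enzyme and proluciferin substrate were first combined with test chemical for 10 min at room temperature. Adding NADPH regeneration solution started a 1 h reaction, stopped with luciferin detection reagent and read by luminescence 20 min later.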

[4] = Caspase-3/7 induction in CHO-K1 cells by small molecules, qHTS cell viability counter screen (AID 1346979); details: CellTiter-Fluor fluorescence, 17 h; activity change, negative = cytotoxicity: at 92.4 µM (top of the series); further: nearly all actives have a fitted effect of over 35% in size; on activity change, negative = cytotoxicity: on the % scale 0 is the no-effect control and ±100 the full control effect
Procedure, shortened: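 In the same wells as the caspase read, viability of compound-treated wild-type CHO-K1 cells was assessed using CellTiter-Fluor, added after 16hr at 37C and measured by fluorescence following 1hr further incubation.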

[5] = target: Cytochrome P450 2C9 (Homo sapiens) (UniProt P11712); assay: Cytochrome P450 Family 2 Subfamily C Member 9 (CYP2C9) small molecule antagonists: luciferase reporter qHTS assay (AID 1671198); details: P450-Glo CYP2C9 enzyme assay, luciferin luminescence; series mostly up to 115 µM; further: nearly all actives have a fitted effect of over 50% in size
Procedure, shortened: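 P450-Glo proluciferin substrate with CYP2C9 enzyme; 10 min RT preincubation, then NADPH regeneration 1 h at 37C; luciferin detection reagent 20 min RT, luminescence in relative luminescence units.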

[6] = target: Cytochrome P450 2C19 (Homo sapiens) (UniProt P33261); assay: Cytochrome P450 Family 2 Subfamily C Member 19 (CYP2C19) small molecule antagonists: luciferase reporter qHTS assay (AID 1671197); details: P450-Glo CYP2C19 enzyme, luciferin luminescence, 1 h; series mostly up to 115 µM; further: nearly all actives have a fitted effect of over 65% in size
Procedure, shortened: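 Luminescent readout of CYP2C19 activity: luciferin product detected 20 min after adding detection reagent. Before that, compound and enzyme-substrate mix preincubated 10 min at room temperature; NADPH-regenerating system started a 1 h, 37C reaction. Ketoconazole as positive control.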

[7] = Caspase-3/7 induction in HepG2 cells by small molecules, qHTS cell viability counter screen (AID 1346981); details: CellTiter-Fluor fluorescence, 17 h; series mostly up to 92.4 µM; further: nearly all actives have a fitted effect of over 30% in size
Procedure, shortened: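 Cell viability is measured as a cytotoxicity counter screen alongside the Caspase-Glo 3/7 readout in identical wells. Wild-type HepG2 cells are treated with test compounds for 16 hr at 37 C before CellTiter-Fluor addition and a 1-hr incubation.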
Potency means the concentration at half of the fitted maximal effect; tags describe the fitted curve by direction and shape.

Chain of UniProt P11712 (P11712 whole entry, looked up): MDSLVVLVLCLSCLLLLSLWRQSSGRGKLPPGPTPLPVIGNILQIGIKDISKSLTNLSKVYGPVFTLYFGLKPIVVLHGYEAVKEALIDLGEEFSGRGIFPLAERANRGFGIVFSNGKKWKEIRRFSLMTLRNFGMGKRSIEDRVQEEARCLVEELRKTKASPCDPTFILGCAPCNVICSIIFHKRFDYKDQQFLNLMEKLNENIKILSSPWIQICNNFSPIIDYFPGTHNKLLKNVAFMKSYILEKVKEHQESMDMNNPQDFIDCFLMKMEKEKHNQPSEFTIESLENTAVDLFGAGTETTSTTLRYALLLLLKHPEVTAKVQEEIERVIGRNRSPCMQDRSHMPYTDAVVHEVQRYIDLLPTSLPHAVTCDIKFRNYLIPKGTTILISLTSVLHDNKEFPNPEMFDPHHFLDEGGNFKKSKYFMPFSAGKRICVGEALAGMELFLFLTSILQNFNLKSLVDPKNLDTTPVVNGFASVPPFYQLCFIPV
Chain of UniProt O75469 (O75469 whole entry, looked up): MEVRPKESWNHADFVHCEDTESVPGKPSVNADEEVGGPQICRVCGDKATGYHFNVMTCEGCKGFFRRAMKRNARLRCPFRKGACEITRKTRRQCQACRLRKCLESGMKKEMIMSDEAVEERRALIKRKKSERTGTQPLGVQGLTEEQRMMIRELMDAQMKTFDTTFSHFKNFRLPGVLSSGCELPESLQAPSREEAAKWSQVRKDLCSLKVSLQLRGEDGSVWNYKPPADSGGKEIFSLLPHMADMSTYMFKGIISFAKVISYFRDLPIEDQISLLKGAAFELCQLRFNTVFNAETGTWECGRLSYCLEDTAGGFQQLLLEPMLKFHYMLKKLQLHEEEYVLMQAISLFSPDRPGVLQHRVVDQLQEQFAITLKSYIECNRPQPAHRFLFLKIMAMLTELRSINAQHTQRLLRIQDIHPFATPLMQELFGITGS
Chain of UniProt P10635 (P10635 whole entry, looked up): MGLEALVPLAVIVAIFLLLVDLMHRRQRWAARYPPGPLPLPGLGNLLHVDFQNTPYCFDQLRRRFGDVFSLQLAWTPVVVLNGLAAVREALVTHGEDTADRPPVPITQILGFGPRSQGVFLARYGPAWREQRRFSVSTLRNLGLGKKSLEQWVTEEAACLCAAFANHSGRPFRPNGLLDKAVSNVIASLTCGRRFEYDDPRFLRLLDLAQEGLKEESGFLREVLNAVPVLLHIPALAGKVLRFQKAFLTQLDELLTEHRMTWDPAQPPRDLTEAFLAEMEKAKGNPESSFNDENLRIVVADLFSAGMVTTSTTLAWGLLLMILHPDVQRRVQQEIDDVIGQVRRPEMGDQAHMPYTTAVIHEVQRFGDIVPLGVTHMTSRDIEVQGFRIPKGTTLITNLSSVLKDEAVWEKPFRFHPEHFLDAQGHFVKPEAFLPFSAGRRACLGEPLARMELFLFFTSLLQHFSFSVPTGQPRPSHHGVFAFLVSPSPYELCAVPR
Chain of UniProt P06401 (P06401 whole entry, looked up): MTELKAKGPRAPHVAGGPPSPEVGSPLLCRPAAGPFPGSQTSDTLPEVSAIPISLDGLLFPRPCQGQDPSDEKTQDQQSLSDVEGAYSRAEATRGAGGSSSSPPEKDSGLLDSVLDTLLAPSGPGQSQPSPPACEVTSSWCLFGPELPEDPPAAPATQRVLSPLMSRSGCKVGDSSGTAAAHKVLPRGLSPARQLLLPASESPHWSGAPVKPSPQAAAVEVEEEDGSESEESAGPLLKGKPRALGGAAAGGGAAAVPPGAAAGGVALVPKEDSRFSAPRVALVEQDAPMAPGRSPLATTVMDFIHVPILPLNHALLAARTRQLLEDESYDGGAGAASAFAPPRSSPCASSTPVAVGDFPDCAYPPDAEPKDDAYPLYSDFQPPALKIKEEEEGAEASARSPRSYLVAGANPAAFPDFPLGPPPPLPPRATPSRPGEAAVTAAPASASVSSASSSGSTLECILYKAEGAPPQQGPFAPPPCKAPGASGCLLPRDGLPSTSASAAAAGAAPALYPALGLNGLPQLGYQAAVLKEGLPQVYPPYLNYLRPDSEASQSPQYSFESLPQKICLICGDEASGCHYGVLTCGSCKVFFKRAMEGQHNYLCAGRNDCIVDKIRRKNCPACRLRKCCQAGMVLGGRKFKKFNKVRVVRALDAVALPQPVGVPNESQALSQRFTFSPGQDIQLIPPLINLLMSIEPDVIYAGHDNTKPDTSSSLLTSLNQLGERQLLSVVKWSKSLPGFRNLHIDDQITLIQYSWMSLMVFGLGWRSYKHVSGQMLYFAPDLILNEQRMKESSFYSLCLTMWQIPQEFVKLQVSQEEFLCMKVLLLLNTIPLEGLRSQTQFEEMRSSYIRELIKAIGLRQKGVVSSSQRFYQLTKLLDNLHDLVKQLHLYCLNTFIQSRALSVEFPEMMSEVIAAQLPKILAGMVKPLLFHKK
Chain of UniProt P33261 (P33261 whole entry, looked up): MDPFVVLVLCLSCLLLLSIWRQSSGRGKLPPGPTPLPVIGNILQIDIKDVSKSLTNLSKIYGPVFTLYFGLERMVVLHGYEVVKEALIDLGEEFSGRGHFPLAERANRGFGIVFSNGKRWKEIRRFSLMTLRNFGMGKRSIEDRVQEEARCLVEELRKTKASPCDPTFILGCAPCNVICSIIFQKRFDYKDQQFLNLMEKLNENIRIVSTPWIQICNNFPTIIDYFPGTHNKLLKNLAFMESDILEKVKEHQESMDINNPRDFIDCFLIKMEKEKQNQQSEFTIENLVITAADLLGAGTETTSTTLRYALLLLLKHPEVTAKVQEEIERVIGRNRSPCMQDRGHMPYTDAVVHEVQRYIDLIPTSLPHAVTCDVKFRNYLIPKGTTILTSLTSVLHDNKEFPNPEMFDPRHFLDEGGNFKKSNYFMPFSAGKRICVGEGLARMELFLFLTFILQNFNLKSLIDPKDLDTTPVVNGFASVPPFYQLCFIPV

In the case of `CCCCCCCCCCCCS`, the activity change, negative = inhibition [1] is reported as inconclusive: 0.418% and the Potency [2] is reported as inconclusive [activator, single point].

In the case of `Cn1c(N)c(N=O)c(=O)n(C)c1=O`, the activity change, negative = inhibition [1] is reported as inconclusive: 15.8%, the Potency [2] is reported as “inactive” and the Potency [3] is reported as inconclusive [inhibitor, partial curve].

For `[Cl][Nd]([Cl])[Cl]`, the activity change, negative = inhibition [1] was inconclusive: 9.43%, the Potency [4] was “inactive” and the Potency [5] was inconclusive [inhibitor, single point].

With `COc1cc(OC)c2ccc(=O)oc2c1` the Potency [1] was inconclusive [rising, partial curve, poor fit], the Potency [4] was inconclusive [rising, single point] and the Potency [6] was inconclusive [inhibitor, single point]. For the same compound, the Potency [5] was inconclusive [inhibitor, single point].

With `CC1=CC[C@@H]2C[C@H]1C2(C)C` the activity change, negative = inhibition [1] was inactive: 6.78% [at 18.9 µM], the Potency [2] was inconclusive [activator, single point] and the Potency [5] was inconclusive [inhibitor, partial curve, poor fit].

With `c1ccc2[nH]cnc2c1` the Potency [1] was inconclusive [rising, full curve, poor fit] and the Potency [3] was inconclusive [inhibitor, partial curve, poor fit].

In the case of `NC/C=C/C(=O)O`, the Potency [1] is reported as “inactive”, the Potency [2] is reported as “inactive” and the Potency [3] is reported as “inactive”.

For `OCCN(CCO)c1cccc(Cl)c1`, the Potency [1] was “inactive”, the Potency [7] was inconclusive [cytotoxic, single point] and the Potency [5] was inconclusive [inhibitor, full curve, poor fit].
